Several values for one entry are separate records, joined by “and”; a condition that tells them apart may be missing. Equal entries are not always repeated. Among all 16,000 compounds or so, about 40 (0.2%) were called active. Inconclusive results (about 1%) are left out. Calls come from the whole dose curve; as a rule, active = well fitted activation curve with a large enough effect; inconclusive = small, poorly fitted or top-dose-only effect, or another doubt; inactive = no such curve, though single readings can be large or run the other way. This is one part of the list.
% is set by controls: 0 for no effect and ±100 for the full control effect.

This test concerns the target Rap guanine nucleotide exchange factor 4 (Homo sapiens) (UniProt Q8WZA2). Description: Validation qHTS for agonist of cAMP-regulated guanine nucleotide exchange factor 4 (EPAC2).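 Note: exchange makes BODIPY-GDP fluorescence drop when released from Rap1B; series mostly up to about 150 µM.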 The settings on record: EPAC2 Rap1B BODIPY-GDP exchange, fluorescence; activation: stronger effect = higher value. In outline: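 Signal normalized against 6.5 mM cAMP as agonist control. Mix of EPAC2 (100 nM), RAP1B-BODIPY-GDP (250 nM) and GDP (50 uM) was read kinetically at 480/540 nm, every 5 min over 30 min, after 5 min room-temperature incubation with compound.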
Sequence of UniProt Q8WZA2 (Q8WZA2 whole entry, looked up): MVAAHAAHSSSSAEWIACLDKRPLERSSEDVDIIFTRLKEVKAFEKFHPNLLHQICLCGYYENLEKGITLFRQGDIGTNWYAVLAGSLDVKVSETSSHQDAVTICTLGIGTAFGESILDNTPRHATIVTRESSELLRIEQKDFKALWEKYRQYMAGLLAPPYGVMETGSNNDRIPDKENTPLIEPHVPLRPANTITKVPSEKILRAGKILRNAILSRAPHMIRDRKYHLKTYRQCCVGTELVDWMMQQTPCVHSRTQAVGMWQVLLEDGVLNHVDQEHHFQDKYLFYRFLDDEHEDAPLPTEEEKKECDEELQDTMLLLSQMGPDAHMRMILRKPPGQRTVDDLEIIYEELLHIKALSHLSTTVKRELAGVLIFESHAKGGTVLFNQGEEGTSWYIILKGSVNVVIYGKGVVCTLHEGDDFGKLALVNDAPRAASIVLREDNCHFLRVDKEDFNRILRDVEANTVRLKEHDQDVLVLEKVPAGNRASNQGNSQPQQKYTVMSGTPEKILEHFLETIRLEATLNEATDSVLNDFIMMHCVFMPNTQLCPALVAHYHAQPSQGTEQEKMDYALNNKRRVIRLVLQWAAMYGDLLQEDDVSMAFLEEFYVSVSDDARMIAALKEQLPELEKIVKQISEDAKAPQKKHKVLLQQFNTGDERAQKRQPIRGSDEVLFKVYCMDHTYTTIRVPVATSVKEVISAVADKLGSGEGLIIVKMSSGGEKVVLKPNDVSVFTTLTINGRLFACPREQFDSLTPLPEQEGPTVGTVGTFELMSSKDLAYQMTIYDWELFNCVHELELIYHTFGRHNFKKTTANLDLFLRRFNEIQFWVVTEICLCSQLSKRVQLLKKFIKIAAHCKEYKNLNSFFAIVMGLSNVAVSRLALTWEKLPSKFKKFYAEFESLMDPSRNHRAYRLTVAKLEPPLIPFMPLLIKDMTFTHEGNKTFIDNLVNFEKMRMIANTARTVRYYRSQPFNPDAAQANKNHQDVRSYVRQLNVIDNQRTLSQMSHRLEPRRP
(In general: In qHTS, concentration-response curves come from the screen itself.)
On to `COc1ccc2[nH]c3c(c2c1)CCNC3C` (centres undefined), for which the activation is inactive: 6.15%.

As for `COc1ccc(C(CN(C)C)C2(O)CCCCC2)cc1` (centres undefined), the activation was inactive: -16.7% and inactive: -27.9%. As for `CCCSc1cc(OC)c(CCN)cc1OC`, the figure is inactive: -9.14%.

For `CN1CC[C@@]2(CCCN(C(=O)c3csnn3)C2)C1`, the activation was inactive: -14.9%.

Consider `CCN(CCCl)Cc1ccccc1Br`, for which the activation is inactive: -34.3%. As for `C[N+]1(C)[C@@H]2CC[C@H]1CC(OC(=O)c1c[nH]c3ccccc13)C2` (some centres undefined), the activation was inactive: -9.27%.

In the case of `Cc1o[nH]c(=O)c1CC(N)C(=O)O` (centres undefined), the activation is inactive: -17.5%. Regarding `NC(Cc1ccc(N(CCCl)CCCl)cc1)C(=O)O` (centres undefined), the activation was inactive: -4.68% and inactive: -17.5%. For `CC1(C)C(C(Cl)Cl)C2(Cl)C(Cl)C(Cl)C1(Cl)C2(Cl)Cl` (centres undefined), the activation was inactive: -2.28%. As for `C/C=C1/CN2CC[C@]34C(=C(C=O)[C@H]1C[C@@H]23)Nc1ccccc14`, the activation is inactive: -5.48%. On to `CCN(CC)CCOC(=O)C(O)(c1ccccc1)c1ccccc1`, for which the activation was inactive: -14.2%. As for `N[C@H](CCP(=O)(O)O)C(=O)O`, the figure is inactive: -1.18% and inactive: 9.83%; as for `CC(C)(C)OC(=O)c1ncn2c1[C@@H]1CCCN1C(=O)c1c(Br)cccc1-2`, inactive: 8.19%. The result for `OC(c1ccccc1)(c1ccccc1)C1CN2CCC1CC2` (centres undefined) reads inactive: -24.9%; that for `NP(N)(=O)NC(=O)c1ccc(F)cc1`, inactive: -18.3%. Consider `O=C(C[C@@H]1NCCC[C@H]1O)Cn1cnc2cc(Br)c(Cl)cc2c1=O`, for which the activation was inactive: -11%.

Turning to `CC[n+]1c(-c2ccccc2)c2cc(N)ccc2c2ccc(N)cc21`, the activation is inactive: -1.34% and inactive: 17.4%. Regarding `N[C@H](CP(=O)(O)O)C(=O)O`, the activation is inactive: -9.91%. `C[C@]12CC[C@H]3[C@@H](C[C@H](F)C4=CC(=O)CC[C@@]43C)[C@@H]1CC[C@@H]2O`: the activation is inactive: -9.66%. As for `Oc1ccc2c3c1O[C@H]1c4oc5ccccc5c4C[C@@]4(O)C(C2)N(CC2CC2)CCC314` (some centres undefined), the figure is inactive: -20.4%; as for `COc1cc2c(cc1OC)[C@@H]1C(=O)c3ccc(OC)c(CC=C(C)C)c3OC1CO2` (some centres undefined), inactive: -16.7%; as for `CCCCC1C(=O)NC(=O)N(C2CCCCC2)C1=O` (centres undefined), inactive: -20.5%. The result for `COc1ccc(C(=O)O)cc1OC` reads inactive: -16.7%; that for `COc1ccc2[nH]cc(C3=CCNCC3)c2c1`, inactive: -16.8% and inactive: -4.47%. In the case of `C(=C/c1ccccc1)/CN1CCN(CCOC(c2ccccc2)c2ccccc2)CC1`, the activation was inactive: -25.9%. As for `NCC(=O)c1ccccc1`, the figure is inactive: -19.6%; as for `Clc1ccc(C(Cn2ccnc2)OCc2csc3c(Cl)cccc23)c(Cl)c1` (centres undefined), inactive: 0.0963%. The result for `CCOC(=O)c1ncn2c1CN(C)C(=O)c1c(I)cccc1-2` reads inactive: -28.4%; that for `O=C(Nc1ccccc1)N1CC[C@@]2(CCCN(C(=O)Oc3ccccc3)C2)C1`, inactive: 2.28%; that for `O=C(O)Cc1ccccc1`, inactive: -8.91%. With `ClC(Cl)(Cl)Cl`, the activation was inactive: -7.71%. Consider `Clc1cccc(SC2CCNCC2)n1`, for which the activation is inactive: -20.4% and inactive: -10.4%.

Regarding `CCNC(=O)[C@@H]1O[C@@H](n2cnc3c(N)ncnc32)[C@H](O)[C@H]1O`, the activation is inactive: -13.5%. The result for `O=C(O)[C@H]1[C@H]2CN[C@H](C(=O)O)[C@H]21` reads inactive: -11.4% and inactive: 8.11%. The result for `COc1ccc(C(=O)c2c(C)n(CCN3CCOCC3)c3ccccc23)cc1` reads inactive: -11.4%.

As for `CNC(=O)OCC[N+](C)(C)C`, the activation was inactive: 0.434%. In the case of `CN1C(=O)[C@@H](NC(=O)c2cc3ccccc3[nH]2)N=C(c2ccccc2)c2ccccc21`, the activation was inactive: 8.25%. Turning to `c1cc2c(c(N3CCNCC3)c1)OCCO2`, the activation is inactive: -19.3%. In the case of `CC1(C)C(=O)[C@@H]2OC2[C@@]2(C)C1CC(O)[C@]1(C)C2CC[C@@]2(C)C(c3ccoc3)OC(=O)C3OC312` (some centres undefined), the activation is inactive: -14%. `O=c1c(O)c(-c2ccc(O)c(O)c2)oc2c(O)c(O)cc(O)c12`: the activation was inactive: -5.57%.

As for `CC1=C(O)C(=O)[C@H]2O[C@@H]2C1=O`, the activation was inactive: -11.6%. As to `O=C(c1csnn1)N1CCC[C@@]2(CCN(Cc3ccncc3)C2)C1`, the activation was inactive: -28.1%. As for `CCNCC(O)c1cccc(O)c1` (centres undefined), the activation is inactive: -7.06%. The result for `O=C(CS(=O)C(c1ccccc1)c1ccccc1)NO` (centres undefined) reads inactive: -8.15%; that for `CCOC(=O)[C@]12Cc3cc(N(C)C)ccc3[C@H]1N(Cc1ccccc1)C(=O)c1ccccc12`, inactive: -6.96%; that for `CN1CCc2cc3c(cc2C1O)OCO3` (centres undefined), inactive: -1.21%. As for `CP(=O)(O)CCCN`, the figure is inactive: -14.8% and inactive: -5.67%; as for `C[C@@]12CCC(O)C[C@H]1CCC1C2CC[C@]2(C)C(=O)CCC12` (some centres undefined), inactive: 0.289%; as for `COc1cc2c(cc1O)-c1c(O)c(OC)cc3c1[C@H](C2)N(C)CC3`, inactive: 8.4%. Turning to `COC1=CC23CCCN2CCc2cc4c(cc2C3C1O)OCO4` (centres undefined), the activation was inactive: -0.996%. `CC(n1cc(C[C@H](N)C(=O)O)c2ccccc21)n1cc(C[C@H](N)C(=O)O)c2ccccc21`: the activation was inactive: -7.56%.

Consider `C[C@H]1CC[C@@H]2N(C1)C[C@H]1[C@@H]3C[C@H]4[C@@H](CC(=O)[C@H]5C[C@@H](O)CC[C@@]54C)[C@@H]3CC[C@H]1[C@]2(C)O`, for which the activation was inactive: 4.31%.

For the compound `CC(C)NCC(O)c1ccc(N)c(C#N)c1` (centres undefined), the activation was inactive: -0.359% and inactive: 11.4%. As for `CCC(OC(C)=O)C(CC(C)NC)(c1ccccc1)c1ccccc1` (centres undefined), the activation is inactive: 5.14%. The result for `CNCC(O)c1ccc(O)cc1` (centres undefined) reads inactive: -12.7% and inactive: -40.4%; that for `CC(=O)C1CC[C@H]2C3CC[C@@H]4CC(O)CC[C@@]4(C)C3CC[C@]12C` (some centres undefined), inactive: 3.26%. As to `c1ccc(N2CCCC3(CCNCC3)C2)cc1`, the activation was inactive: -17%.

Take `O=C(Cc1ccc(Cl)c(Cl)c1)N1CCCCC1CN1CCCC1` (centres undefined): the activation is inactive: 3.99% and inactive: -12.6%. On to `CCCN(CCC)c1c([N+](=O)[O-])cc(S(N)(=O)=O)cc1[N+](=O)[O-]`, for which the activation is inactive: -29.8%.

The values above are taken from PubChem BioAssay AID1645887 (National Center for Advancing Translational Sciences (NCATS), 2021).
